According to the supplement of paper PMC12217912:
Some of the results follow. The full chains were built here from the parent and the listed change. Inactive controls read about 0.05.

B1: TEV protease; numbered along this chain (parent)
chain: MGESLFKGPRDYNPISSSICHLTNESDGHTTSLYGIGFGPFIITNKHLFRRNNGTLVVQSLHGVFKVKDTTTLQQHLVDGRDMIIIRMPKDFPPFPQKLKFREPQREERICLVTTNFQTKSMSSMVSDTSCTFPSGDGIFWKHWIQTKDGQCGSPLVSTRDGFIVGIHSASNFTNTNNYFTSVPKNFMELLTNQEAQQWVSGWRLNADSVLWGGHKVFMVKPEEPFQPVKEATQL

Variants of: B1
Assay: raw area under fraction-flipped curve 0-4 h after induction (AUC4h, not background-subtracted), DNA-recorder readout of cleavage of the substrate (dimensionless); higher = more cleavage of the substrate by the protease variant
Details: temperature: 34 °C; time window: 0-4 h after rhamnose induction
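Also: Bxb1 expression induced with 0.2% (w/v) L-rhamnose at OD600 near 0.5, cultures sampled hourly, flipped fraction per protease–substrate barcode pair counted by paired-end Illumina sequencing.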

Row | Variant | area with substrate EALYFQS | area with substrate ECLYFQS | area with substrate EDLYFQS | area with substrate EELYFQS | area with substrate EGLYFQS | area with substrate EILYFQS | area with substrate EKLYFQS | area with substrate ELLYFQS | area with substrate EMLYFQS | area with substrate EPLYFQS | area with substrate EQLYFQS | area with substrate ERLYFQS | area with substrate ESLYFQS | area with substrate ETLYFQS | area with substrate EVLYFQS | area with substrate EYLYFQS | area with substrate EFLYFQS | area with substrate EHLYFQS | area with substrate EWLYFQS
1 | V165R | 0.0566 | 0.0487 | 0.0444 | 0.0668 | 0.0511 | 0.0139 | 0.049 | 0.0487 | 0.0588 | 0.0447 | 0.0479 | 0.0528 | 0.0475 | 0.0223 | 0.0485 | 0.0326 |  |  | 
2 | V165T | 0.079 | 0.0767 | 0.0867 | 0.109 |  | 0.0413 | 0.068 |  | 0.11 | 0.0754 | 0.0684 | 0.0724 | 0.0743 | 0.0717 | 0.0977 | 0.0589 | 0.0739 | 0.0788 | 
3 | P155K | 0.0461 | 0.0573 | 0.0593 | 0.0564 |  | 0.0517 | 0.0484 | 0.0533 | 0.0605 | 0.0681 | 0.0466 |  | 0.0593 | 0.046 |  |  | 0.0538 | 0.0576 | 0.0441
4 | P155D | 0.0508 | 0.0469 | 0.0457 | 0.0422 | 0.0455 | 0.0414 | 0.0392 |  | 0.0371 |  |  | 0.0589 | 0.0561 | 0.0376 | 0.0488 | 0.0539 |  |  | 0.0542
5 | S169W | 0.0614 | 0.0448 | 0.05 | 0.0565 |  | 0.0624 | 0.0639 |  | 0.0631 |  |  |  |  |  | 0.0753 | 0.0676 | 0.0636 | 0.0583 | 
6 | S169M | 0.0711 | 0.0688 | 0.0804 | 0.0724 | 0.0312 | 0.0507 | 0.0519 | 0.066 | 0.0662 | 0.0532 | 0.0642 | 0.0862 |  |  | 0.0698 |  |  | 0.0914 | 0.0738
7 | N177L | 0.218 | 0.127 | 0.137 | 0.163 | 0.137 |  | 0.114 | 0.115 | 0.18 |  | 0.186 | 0.135 | 0.14 |  | 0.187 |  |  | 0.126 | 
8 | N177S | 0.0911 | 0.0853 | 0.0991 |  | 0.0746 | 0.0722 | 0.0852 | 0.0852 | 0.0784 | 0.109 | 0.0881 | 0.0964 | 0.0779 | 0.0845 | 0.0739 | 0.117 |  | 0.0921 | 0.082
9 | F187M | 0.113 | 0.106 | 0.138 |  |  | 0.0874 | 0.0871 | 0.0802 | 0.124 | 0.109 | 0.099 | 0.0618 | 0.102 |  |  | 0.108 | 0.117 | 0.102 | 0.108
10 | G162P | 0.0656 | 0.0663 | 0.0853 | 0.0684 |  | 0.0656 | 0.0522 |  | 0.0709 | 0.0595 | 0.0359 | 0.0702 | 0.0667 |  | 0.0541 |  | 0.064 |  | 
11 | I167A | 0.0767 | 0.059 | 0.0898 | 0.0805 |  |  |  | 0.0537 | 0.0707 |  |  |  | 0.0701 |  |  |  |  |  | 0.0673
12 | D149Y | 0.0813 | 0.0745 | 0.106 | 0.0858 | 0.0645 | 0.0625 |  | 0.0705 | 0.0783 | 0.0746 | 0.0671 | 0.0783 | 0.0682 | 0.0799 |  | 0.0809 | 0.0649 | 0.0807 | 
